Test results taken from the supplement of paper PMC11417369.
± gives the standard deviation of the averaged measurements. Some of the results follow.

The sequences below were run on PfAP2-LT AP2 domain (GST-tagged) (assay: gcPBM binding intensity (ln(normalized median fluorescence intensity)); higher = stronger DNA binding).
Method in brief: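 Each value is the highest Masliner-normalised natural-log median intensity across replicate spots of either orientation of a probe. The probes were primer-extended double-stranded 36-bp intergenic genomic sequences on an Agilent 4 × 180k array, alongside negative controls, exposed for 1 h to GST-tagged P. falciparum DNA-binding domains expressed in E. coli. Bound protein was picked up with Alexa488 anti-GST antibody and scanned at 488 nm.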

| Sequence | gcPBM binding intensity (ln) |
| --- | --- |
| ACGTTAGGCTTATTTGCACACTTGTATTATAATTTT [CACACA_site1317] | 9.11 ± 0.35 |
| ATATTATCACAAGGTGGTACACAAAAAAAAAAAAAA [XGTACX_site8224] | 8.73 ± 0.54 |
| ATAAATATGGCAGTACGTACGTATATTCATATTCAT [XGTACX_site8042] | 9.04 ± 0.36 |
| ATTAAAAAAAAAAAAAAAAAACAAAAAAAAAAAAAA [CACACA_negctrl_site1187] | 8.03 ± 0.49 |
| TTTTTTTTTTTTTTTTGTACATATACATATATATAT [XGTACX_site1981] | 8.76 ± 0.46 |
| AGTAGCAAATATTAAGTGCATATTATATAATGTGTA [GTGCAC_site9546] | 8.89 ± 0.48 |
| GGTTTACCCTATAAATGTACTCATAAATTATATATA [XGTACX_site5771] | 8.4 ± 0.45 |
| ATACGAAATAGAAACACACATACAATAAATAAATAT [CACACA_site2017] | 9.35 ± 0.4 |
| TGTTCAGTATGGCACACACACAACAAAATAAAAAAA [CACACA_site4368] | 9.52 ± 0.6 |
| AAAAAAAACATACATACACACACATAAATATATATA [CACACA_site8864] | 9.72 ± 0.23 |
| ATGGATTATTTTTAAACATGCAGTAGTGATGAAAAA [TGCATGCA_site346] | 8.61 ± 0.45 |
| TGATCAAGTAAGAAAAGTACAAAAAAAGTAAAAAAT [XGTACX_site6529] | 8.93 ± 0.58 |
| GTTCTTTCAAATTATACACACCAAAAAAAAAAAAAA [CACACA_site5660] | 8.57 ± 0.41 |
| GCGTGTGTACAATGAGTGCATATCTAAAGGGAAGAT | 9.72 ± 0.49 |
| ATAAGTTTTTATTTTCTGCACTGTCGAATAATAGTT | 8.79 ± 0.49 |
| GATATGTTTTATTATGTTGATGATAACAGGTAGTTT [CACACA_negctrl_site356] | 8.82 ± 0.4 |
| TCAATGAAATTAATATGTACATATTTTTATATAGTA [XGTACX_site7955] | 8.52 ± 0.43 |
| TGGCAAAATAGGCACACACACATATACAGATATATT [CACACA_site4727] | 9.6 ± 0.37 |
| AAAAAATATATATATATATATATGTAATATTTTTTT [XGTACX_negctrl_site439] | 8.79 ± 0.32 |
| AAAACTATAAAAATTTTACACACTGTTTTTAAATAA [CACACA_site3667] | 8.54 ± 0.4 |
| TATATTATAATATTCACACACTAACGTAAATCATTG [CACACA_site7318] | 8.93 ± 0.46 |
| ATAAAAAAAGATGAACGTACATATATTTTAAAAATC [XGTACX_site5950] | 8.79 ± 0.51 |
| ACAATATGCAAAAAGTGTACACATTCATTTATATAA [XGTACX_site1061] | 9.03 ± 0.46 |

| Sequence | gcPBM binding intensity (ln) |
| --- | --- |
| AATATACAAATAAAGGTGCGAGATATTTTTACTTTT | 8.76 ± 0.48 |
| TATTAAATATATATTACATGCAAAAAAAAAAAACAA [TGCATGCA_site705] | 8.71 ± 0.5 |
| GTAAATATTTGTTGGGTGCTATCAATTATTTCAAAG | 8.64 ± 0.35 |
| ATATAAAATATGTATGAGGAATAAAATTAAAAAAAA [XGTACX_negctrl_site173] | 8.81 ± 0.56 |
| TTTTTTTTGAAGAATACATGCATATTTTCTATATTC [TGCATGCA_site43] | 8.62 ± 0.52 |
| CGGCACATTCTATATACACACATATAAATATATACA [CACACA_site566] | 9.03 ± 0.39 |
| TACAATTCGTAATACACACACATATAAATAAATATT [CACACA_site7720] | 9.29 ± 0.28 |
| TGCGGAAATAAGTGCACACATAGATATATGTATTTT [CACACA_site3689] | 9.26 ± 0.41 |
| ATCTATATCTATAATACACACATCATAAAATATGTA [CACACA_site7230] | 8.87 ± 0.33 |
| ATATTATATATGTATAGTACATATTATAAGAAAAAT [XGTACX_site3457] | 8.87 ± 0.65 |
| ATATATATTAATAATGCATGTGATATAAATTAATAT [TGCATGCA_site930] | 8.87 ± 0.44 |
| ATATGTATAAATATAAATATATATATATATATATAT [CACACA_negctrl_site705] | 9.37 ± 0.37 |
| ATTTTATATATGTGTTGTACGGTGAACATTTTGATA [XGTACX_site6538] | 8.89 ± 0.47 |
| ACGTTAATATCTACAAGTACCCACATTAACAGGAAA [XGTACX_site2616] | 8.8 ± 0.33 |
| ATGATATGGATAAATACACACAATATAATAATGGGT [CACACA_site4905] | 9.27 ± 0.37 |
| ATATCTTATATTATCACACACACACCCACAAAACAG [CACACA_site1464] | 9.92 ± 0.042 |
| AAAAAAAACAGACACACACACATTCAATATAAAACA [CACACA_site41] | 9.86 ± 0.35 |
| TATATAAACATCGGTAGTACACACATTCATGTATTT [XGTACX_site6443] | 9.12 ± 0.43 |
| GGATCATTTTTAAAGGAACACACAAAAAAAATTATA [CACACA_site8381] | 8.71 ± 0.54 |
| GTTCATAAAAATTTTTGTACCCATAAAATATTCCTC [XGTACX_site8611] | 8.57 ± 0.47 |
| GTAGGTGTTTTTGGTTGTACATATAAATATATATAC [XGTACX_site3380] | 9.04 ± 0.23 |
| TTTTTTTTTTTTAATTGTACTTATTAAAAAAAGCAA [XGTACX_site8713] | 7.94 ± 0.44 |
